The campaign covered roughly 50,000 compounds. About 800 (1.6%) showed an effect of 50% or more. Some of the results follow.

This test concerns the target Bcl-2-like protein 10 (Homo sapiens) (UniProt Q9HD36). Kind of test: TR3 peptide-Bcl-B binding displacers, biochemical primary FP assay, phenotype converters (AID 1240).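 Note: 0% = Bcl-B with tracer peptide and DMSO and 100% = tracer peptide lacking Bcl-B.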 To be noted: GST-Bcl-B / FITC-TR3 peptide fluorescence polarization; stronger effect = higher value; compound at 3.75 mg/L. In general terms: In fluorescence polarisation assays a small probe gives low polarisation when free and higher when bound to something large.
UniProt Q9HD36, sequence (Q9HD36 whole entry, looked up): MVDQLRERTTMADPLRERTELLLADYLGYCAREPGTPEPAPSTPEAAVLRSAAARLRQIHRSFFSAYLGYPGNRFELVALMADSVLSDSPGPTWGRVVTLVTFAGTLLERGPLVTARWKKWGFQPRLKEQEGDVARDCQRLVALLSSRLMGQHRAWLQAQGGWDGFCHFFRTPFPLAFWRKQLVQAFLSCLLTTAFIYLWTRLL
Regarding `Cc1ccc(S(=O)(=O)N(Cc2ccco2)CC(O)Cn2c3ccccc3c3ccccc32)cc1` (centres undefined), the displacement came to 5.9%.

For `CN(C)c1ccc(NS(=O)(=O)c2ccc(N3C(=O)c4ccccc4C3=O)cc2)cc1`, the displacement was -8.7%.

`COc1ccccc1-c1coc2cc(OC(=O)c3ccccc3C)ccc2c1=O`: the displacement came out at 1.9%.

With `COC(=O)COc1ccc(/C=N/NC(=O)CSc2nc(C)cc(C)n2)cc1`, the displacement is -5%.

On to `O=C(Cc1ccc(Br)cc1)Nc1ccccc1`, for which the displacement turned out to be 8.3%.

`COc1ccc(CCNC(=O)c2ccccc2[N+](=O)[O-])cc1OC`: the displacement is -4%.

Take `Cc1[nH]n(-c2ccccc2)c(=O)c1/C=C1/C=Nc2ccccc21`: the displacement amounted to 16.6%.

With `O=C(NC[n+]1ccccc1)c1ccc(Cl)cc1`, the displacement is 0.7%.

On to `CN1CCN(C(=O)CN2C(=O)/C(=C/c3cccc(Br)c3)SC2=S)CC1`, for which the displacement stood at 7.8%.

Consider `COc1ccc(CCNc2cc(N3CCN(S(=O)(=O)N(C)C)CC3)ccc2[N+](=O)[O-])cc1OC`, for which the displacement came to 18%.

`Cc1cc(C(=O)NCCC(c2ccccc2)c2ccccc2)ccc1[N+](=O)[O-]`: the displacement is -9.9%.

As to `O=C1c2ccccc2C(=O)N1/N=C/c1ccc(O)cc1O`, the displacement was -18.8%.

In the case of `CC(=O)OC1CC(C)(C)N([O])C(C)(C)C1`, the displacement was 5.8%.

With `Cc1cc(N2C(=O)NC(=O)/C(=C\c3cccc(F)c3)C2=O)ccc1Br`, the displacement is -2.3%.

As for `C=CCN1C(=O)/C(=C\c2ccc(Br)c([N+](=O)[O-])c2)SC1=S`, the displacement was found to be 32.1%.

In the case of `COc1ccc(C(O)c2coc3ccc(O)c(CN(C)C)c23)cc1` (centres undefined), the displacement was found to be 8.7%.

In the case of `O=C(N/C(=C/c1ccc(-c2cccc(C(F)(F)F)c2)o1)C(=O)N1CCOCC1)c1ccc(Cl)cc1`, the displacement is -4.4%.

`CC(C)C(=O)N1CCN(c2ccc(F)cc2)CC1`: the displacement stood at 0.4%.

As for `CCOc1ccc(N(CC(=O)Nc2ccc(Cl)cc2)S(C)(=O)=O)cc1`, the displacement amounted to 1.5%.

With `O=C(Nc1ccccc1)c1cccc(S(=O)(=O)Nc2ccccn2)c1`, the displacement was -12%.

Take `Cc1ccc(C)c(NC(=O)C2CC(O)CN2C(=O)OCc2ccccc2)c1` (centres undefined): the displacement came to 6.7%.

On to `C/C(Cn1nnc([N+](=O)[O-])n1)=N\NC(=O)c1ccccc1Cl`, for which the displacement was -6.4%.

For the molecule `CCOC(=O)COc1ccc(-c2nc3sc4c(c3c(=O)[nH]2)CCCC4)cc1OC`, the displacement is -114%.

For the molecule `O=C(CSc1ccccn1)OCC(=O)c1ccc(Br)cc1`, the displacement came to 10.3%.

As for `CC(=O)NS(=O)(=O)c1ccc(NS(=O)(=O)c2ccc(C)cc2)cc1`, the displacement was 14.6%.

For the molecule `CC1=C(C(=O)OCCCc2ccccc2)C(c2ccccc2F)CC(=O)N1` (centres undefined), the displacement was -5.4%.

For the molecule `CC(C)c1ccc(NC(=O)c2cnn(-c3ccccc3)c2NC(=O)c2ccco2)cc1`, the displacement is -6.4%.

Take `O=C1NC(=O)N(c2ccc(Br)cc2)C(=O)/C1=C/c1cccc([N+](=O)[O-])c1`: the displacement turned out to be 7.1%.

For `COc1cc(NC(=O)c2ccc(C)cc2)cc(OC)c1`, the displacement is -8.9%.

As for `O=C(/C=C/c1ccccc1)NCc1ccc2c(c1)OCO2`, the displacement was found to be 0%.

In the case of `C/C(=C\C(=O)c1ccc(Br)cc1)Nc1ccccc1F`, the displacement is -5.1%.

With `C/C(=N\NC(N)=S)C1=CC(C)(C)CCC1`, the displacement is -18%.

Consider `O=C(NC1CCCCC1)C12CC3CCC(CC(C3)C1)C2`, for which the displacement came to 3.8%.

For the molecule `COc1ccc(N(CC(=O)NC(C)(C)C)S(C)(=O)=O)cc1Cl`, the displacement was -6.9%.

With `CCCOc1ccc(C2NC(=O)N(C)C(C)=C2C(=O)OCC)cc1OC` (centres undefined), the displacement was -6.9%.

With `Cc1cc(C)c(S(=O)(=O)c2ccccc2C(C)(C)C)c(C)c1`, the displacement is 12.3%.

Regarding `COc1ccc(N(C(C)C(=O)N/N=C/c2cc(C)n(-c3ccccc3C(F)(F)F)c2C)S(C)(=O)=O)cc1` (centres undefined), the displacement is -40.1%.

In the case of `COc1ccc(CCNc2cc(N3CCN(C(=O)c4ccc(Cl)cc4)CC3)ccc2[N+](=O)[O-])cc1OC`, the displacement turned out to be 10.7%.

As to `CC1CC(Nc2ccccc2)c2ccccc2N1C(=O)c1ccc(Cl)cc1Cl` (centres undefined), the displacement came out at 8.9%.

Consider `COc1cccc(N(CC(=O)Nc2ccccc2Cl)S(=O)(=O)c2ccccc2)c1`, for which the displacement was -2.7%.

With `O=C(Nc1ncc(Br)cc1Br)c1cccc2ccccc12`, the displacement was -0.9%.

`CCOc1ccc(C2C(C(C)=O)=C(O)C(=O)N2CCN(C)C)cc1` (centres undefined): the displacement was found to be 1.9%.

On to `O=C(NCCCO)c1cccc([N+](=O)[O-])c1`, for which the displacement was 0.3%.

Regarding `COc1ccc(NC2OC(=O)c3c2ccc(OC)c3OC)cc1` (centres undefined), the displacement was 8.6%.

For `COc1cccc(NC(=O)C2CC(=O)N(c3ccc(Cl)cc3)C2)c1` (centres undefined), the displacement is 8%.

Regarding `COc1ccc(Br)cc1/C=C/C(=O)Nc1cc(C)ccn1`, the displacement is -46.5%.

Regarding `Cc1ccc(C(C)C)c(OCC(=O)Nc2ccc3c(c2)OCO3)c1`, the displacement amounted to 9.8%.

For the molecule `COC(=O)CCC(=O)Nc1cc(C)ccc1C`, the displacement amounted to 3.4%.

As to `Cc1cc(=O)[nH]c(SCC(=O)Nc2ccc(Cl)cc2)n1`, the displacement is -10.6%.

Consider `CCOc1ccccc1N(CC(=O)Nc1cc(OC)ccc1OC)S(=O)(=O)c1ccccc1`, for which the displacement came to 5.4%.

Turning to `COc1ccc(N(CC(N)=O)S(=O)(=O)c2ccc(C)cc2)cc1`, the displacement amounted to 5%.

With `CCC(C)(C)C1CCc2c(sc(NC(C)=O)c2C(N)=O)C1` (centres undefined), the displacement came to 7.8%.

Consider `Cc1ccc(Cl)cc1NC(=O)CSc1nc2ccc([N+](=O)[O-])cc2s1`, for which the displacement was 2.5%.

On to `O=C(NCCN1CCN(C(=O)c2ccc(Cl)cc2Cl)CC1)c1ccc(Cl)cc1Cl`, for which the displacement is 10.3%.

As for `O=C(O)C1C2C=CC(O2)C1C(=O)Nc1ccc(I)cc1` (centres undefined), the displacement came to 9.6%.

With `CN1C(=O)/C(=C\c2nc3ccccc3c(=O)n2-c2ccccc2)c2cc(Br)ccc21`, the displacement was -5.9%.

Turning to `COc1ccc(CCNC(=O)C2CC(=O)N(c3ccc(F)cc3)C2)cc1OC` (centres undefined), the displacement was -0.6%.

For `COC(=O)C1=C(C)N=c2s/c(=C\c3cccc(Br)c3)c(=O)n2C1c1ccccc1` (centres undefined), the displacement came out at 6.9%.

For the molecule `COc1ccccc1N1CCN(C(=O)C(c2ccccc2)c2ccccc2)CC1`, the displacement is -6.1%.

For the molecule `O=C(O)c1ccccc1C(=O)Nc1ncc(S(=O)(=O)c2ccc([N+](=O)[O-])cc2)s1`, the displacement is -3.8%.

In the case of `CN(C)/C=C/C(=O)c1nnn(C2CCCCC2)c1NC1CCCCC1`, the displacement was 2.2%.

Consider `CCN(CC)CCCNC(=O)c1cc(C(=O)OC)cc([N+](=O)[O-])c1`, for which the displacement was -9.6%.

`COc1ccc(C2=NN(C(=O)c3cccc([N+](=O)[O-])c3)C(c3cccc([N+](=O)[O-])c3)C2)cc1` (centres undefined): the displacement was -3.1%.

On to `O=C(Nc1ccc2nn(-c3cccc([N+](=O)[O-])c3)nc2c1)c1cccs1`, for which the displacement was 15.9%.

Turning to `CC1=CC(C)(C)N(C(=O)C(C)N2C(=O)c3ccccc3C2=O)c2cc(C)c(C)cc21` (centres undefined), the displacement is -2.1%.

As for `COc1ccc(N(CC(=O)Nc2cccc3ccccc23)S(C)(=O)=O)c(OC)c1`, the displacement amounted to 2.2%.

On to `COc1cccc(CNC2CCCc3ccccc32)c1OC` (centres undefined), for which the displacement stood at 5.1%.

For the molecule `Cc1nnsc1C(=O)NC(C)C12CC3CC(CC(C3)C1)C2` (centres undefined), the displacement worked out at 0.6%.

`C=CCOc1ccc(/C=C/C(=O)c2ccc(C)cc2)cc1OC`: the displacement was -15.3%.

With `COCCN1C(=O)C(=O)/C(=C(/O)c2ccccc2)C1c1ccccc1[N+](=O)[O-]` (centres undefined), the displacement is -1.1%.

Regarding `Oc1[nH]c2ccc(Cl)cc2c1N=Nc1ccnc2cc(Cl)ccc12`, the displacement worked out at 1.2%.

For the molecule `O=C(COc1ccc(Br)cc1)Nc1ccc(Cl)cn1`, the displacement was 22%.

Regarding `OCc1cccc(N=Cc2ccc(C=Nc3cccc(CO)c3)cc2)c1`, the displacement is -4.7%.

Regarding `O=c1[nH]cnc(O)c1C(c1ccc(F)cc1)c1c(O)nc[nH]c1=O`, the displacement is -1.1%.

Take `CC(C1COc2ccccc2O1)N1C(=O)CCC1=O` (centres undefined): the displacement is 2.4%.

For the molecule `COc1ccccc1N1CCN(C(=O)CN(c2ccc(C)cc2C)S(=O)(=O)c2ccccc2)CC1`, the displacement is 13.9%.

As to `O=C(Nc1ncc(S(=O)(=O)c2ccc([N+](=O)[O-])cc2)s1)c1ccc(-c2ccccc2)cc1`, the displacement was found to be 2%.

As to `Cc1oc2c(CN3CCC(C)CC3)c(O)ccc2c(=O)c1-c1nc2ccccc2s1`, the displacement came to 6.9%.

`CN1CCC(=NOC(=O)c2ccc(F)cc2)CC1`: the displacement was -12%.

On to `Cc1ccc(C)c(NC(=O)Cc2ccc(Br)cc2)c1`, for which the displacement was -7.5%.

Turning to `COc1ccccc1NC(=O)CCC1CCCC1`, the displacement was -4.6%.

Consider `COc1ccc(C2OCC3(COC(C)=O)C(C)C=C(C)C2C3C)cc1` (centres undefined), for which the displacement was -5.3%.

In the case of `O=C(CN1C(=O)S/C(=C/c2ccccc2F)C1=O)Nc1ccccc1C(=O)O`, the displacement is -9.9%.

Consider `O=C(COc1ccc(Cl)cc1Cl)N1CCCc2ccccc21`, for which the displacement was -4.7%.

Regarding `CCc1ccc2c(c1)C1(NN=C(c3ccccc3)S1)C(=O)N2` (centres undefined), the displacement is -20.2%.

Take `CCC(=O)Nc1ccc(NC(=O)c2cc3ccccc3cc2OC)cc1`: the displacement came to 3%.

`COC(=O)CSc1nnc(-c2ccccc2)c(-c2ccccc2)n1`: the displacement is -31.5%.

As to `Cc1ccc(-n2nc3cc(C)c(NC(=O)COc4ccc(C)c(C)c4)cc3n2)cc1`, the displacement was found to be 2.6%.

As for `CC(=O)c1ccc(NC(=O)c2ccc(-c3cccc([N+](=O)[O-])c3)o2)cc1`, the displacement is -4.7%.

`Cc1ccc(S(=O)(=O)NC(=O)Nc2c(C)cccc2C)cc1`: the displacement was 8.4%.

Consider `COc1ccc(S(=O)(=O)N(CC(=O)Nc2ccc(C(C)=O)cc2)c2ccc(C)cc2)cc1OC`, for which the displacement was found to be 12.1%.

On to `COc1cccc2c(=O)c(CCC(=O)O)c(C)[nH]c12`, for which the displacement came to 11.9%.

Regarding `COc1ccc(N(CC(=O)Nc2ccc(Cl)cc2C)S(=O)(=O)c2ccc(C)c([N+](=O)[O-])c2)cc1`, the displacement turned out to be 16.7%.

On to `COc1ccc(Cl)cc1NC(=O)C1=C(C)NC(=S)NC1c1ccccc1Br` (centres undefined), for which the displacement is 15%.

As to `N#C/C(=C\c1cn(CC(=O)Nc2ccccc2)c2ccccc12)C(=O)Nc1ccc(F)cc1`, the displacement is -30.3%.

For the molecule `Cc1ccc(C2CC(C(F)(F)F)n3ncc(C(=O)NCCN4CCOCC4)c3N2)cc1` (centres undefined), the displacement is 4.8%.

For `CCCN(CCC)CN1C(=O)S/C(=C/c2ccc(C)cc2)C1=O`, the displacement stood at 12.1%.

Turning to `O=C1c2ccc(Oc3cccc([N+](=O)[O-])c3)cc2C(=O)N1c1ccc(Cl)cn1`, the displacement is -13.5%.

As to `Cc1ccc(S(=O)(=O)Nc2cc(Sc3nc4ccccc4s3)c(O)c3ccccc23)cc1`, the displacement was -29.8%.

`O=[N+]([O-])c1ccc(Cl)c(/C=N/N2CCN(Cc3ccccc3Cl)CC2)c1`: the displacement is 8.5%.

Take `COc1c(Cl)cc(C(=O)Nc2ccc(C)cc2[N+](=O)[O-])cc1Cl`: the displacement amounted to 0.1%.

Take `CC(=O)CC(=O)Nc1ccc(NC(=O)CC(C)=O)c(Cl)c1`: the displacement is -6%.

As for `O=C1NC(=S)N(c2ccc(Br)cc2)C(=O)/C1=C/C=C/c1ccccc1`, the displacement was found to be 12.1%.

Turning to `Clc1ccc(C=NN2CCN(Cc3ccccc3)CC2)cc1`, the displacement is -0.6%.

The values are drawn from PubChem BioAssay AID1240 (Sanford-Burnham Center for Chemical Genomics, 2008).
